Assay results: a collection of fitness landscapes (doi:10.1126/science.1257360)
This is one part of the list.

B1: PhoQ; a variant is named by its letters at X, in order, P23837 (parent)
chain: MKKLLRLFFPLSLRVRFLLATAAVVLVLSLAYGMVALIGYSVSFDKTTFRLLRGESNLFYTLAKWENNKLHVELPENIDKQSPTMTLIYDENGQLLWAQRDVPWLMKMIQPDWLKSNGFHEIEADVNDTSLLLSGDHSIQQQLQEVREDDDDAEMTHSVAVNVYPATSRMPKLTIVVVDTIPVELKSSYMVWSWFIYVLSANLLLVIPLLWVAAWWSLRPIEALAKEVRELEEHNRELLNPATTRELTSLVRNLNRLLKSERERYDKYRTTLTDLTHSLKTPLXXLQXXLRSLRSEKMSVSDAEPVMLEQISRISQQIGYYLHRASMRGGTLLSRELHPVAPLLDNLTSALNKVYQRKGVNISLDISPEISFVGEQNDFVEVMGNVLDNACKYCLEFVEISARQTDEHLYIVVEDDGPGIPLSKREVIFDRGQRVDTLRPGQGVGLAVAREITEQYEGKIVAGESMLGGARMEVIFGRQHSAPKDE

Variants of: B1
Test: enrichment ratio after two sorts for PhoP signalling (ratio (wild type AVST 3.29)); higher = more functional
Details: with PhoP (E. coli)

Row | Variant | enrichment ratio
1 | DKRG | ≤ 0.25
2 | EAPV | ≤ 0.25
3 | NYEY | ≤ 0.25
4 | FWWL | ≤ 0.25
5 | QKPQ | ≤ 0.25
6 | PAWP | ≤ 0.25
7 | RVCD | ≤ 0.25
8 | TIDW | ≤ 0.25
9 | DEIF | ≤ 0.25
10 | HGWI | ≤ 0.25
11 | CIAC | ≤ 0.25
12 | QTPT | ≤ 0.25
13 | RFQD | ≤ 0.25
14 | LMMQ | ≤ 0.25
15 | YCQG | ≤ 0.25
16 | VKWF | ≤ 0.25
17 | NAFH | ≤ 0.25
18 | SSPD | ≤ 0.25
19 | TAWN | ≤ 0.25
20 | VNKK | ≤ 0.25
21 | KGQF | ≤ 0.25
22 | WQFV | ≤ 0.25
23 | ALKI | ≤ 0.25
24 | QNLL | ≤ 0.25
25 | IVAG | ≤ 0.25

Row | Variant | enrichment ratio
26 | WDGA | ≤ 0.25
27 | AWRI | ≤ 0.25
28 | SHGR | 0.478
29 | GTYW | ≤ 0.25
30 | PSIM | ≤ 0.25
31 | DRIR | ≤ 0.25
32 | KCFR | ≤ 0.25
33 | WIVV | ≤ 0.25
34 | FMAE | ≤ 0.25
35 | PQIQ | ≤ 0.25
36 | GKPH | ≤ 0.25
37 | GQYW | ≤ 0.25
38 | GWWA | ≤ 0.25
39 | WLEW | ≤ 0.25
40 | YPSC | ≤ 0.25
41 | GRKQ | ≤ 0.25
42 | RYLV | ≤ 0.25
43 | DPRY | ≤ 0.25
44 | KHCR | ≤ 0.25
45 | QKKL | ≤ 0.25
46 | WDVW | ≤ 0.25
47 | FRYQ | ≤ 0.25
48 | PYDY | ≤ 0.25
49 | INGD | ≤ 0.25
50 | QTGW | ≤ 0.25

Row | Variant | enrichment ratio
51 | YARA | ≤ 0.25
52 | FPYR | ≤ 0.25
53 | IKGK | ≤ 0.25
54 | SAMN | 9.23
55 | PVPM | ≤ 0.25
56 | LVVR | ≤ 0.25
57 | GDII | 2.61
58 | FDWD | ≤ 0.25
59 | RCAI | ≤ 0.25
60 | IPFS | ≤ 0.25
61 | SIVL | 0.788
62 | DSLI | ≤ 0.25
63 | IVPC | 0.733
64 | NSWF | ≤ 0.25
65 | QFNS | ≤ 0.25
66 | LREG | ≤ 0.25
67 | SIRF | ≤ 0.25
68 | VYLI | ≤ 0.25
69 | PVCM | ≤ 0.25
70 | LFNG | ≤ 0.25
71 | ACLV | 16
72 | DVFI | ≤ 0.25
73 | QMGH | 7.54
74 | QYVS | ≤ 0.25
75 | FQGQ | ≤ 0.25

Row | Variant | enrichment ratio
76 | GALW | ≤ 0.25
77 | LPRF | ≤ 0.25
78 | IHMK | ≤ 0.25
79 | DVYR | ≤ 0.25
80 | RRQN | ≤ 0.25
81 | AIPP | ≤ 0.25
82 | QDSI | ≤ 0.25
83 | WPRM | ≤ 0.25
84 | NFFA | ≤ 0.25
85 | PHLN | ≤ 0.25
86 | IKVK | ≤ 0.25
87 | TAHF | 10.3
88 | DYKQ | ≤ 0.25
89 | MWKW | ≤ 0.25
90 | DPNI | ≤ 0.25
91 | HADV | ≤ 0.25
92 | VHGH | ≤ 0.25
93 | IWII | ≤ 0.25
94 | NPRW | ≤ 0.25
95 | GWNI | ≤ 0.25
96 | ECDY | ≤ 0.25
97 | EDQY | ≤ 0.25
98 | GGVR | ≤ 0.25
99 | FWKC | ≤ 0.25
100 | HKQN | ≤ 0.25

Row | Variant | enrichment ratio
101 | GLIY | ≤ 0.25
102 | NYYM | ≤ 0.25
103 | LFPD | ≤ 0.25
104 | IWEL | ≤ 0.25
105 | TQDK | ≤ 0.25
106 | HKYM | ≤ 0.25
107 | VCHH | ≤ 0.25
108 | MRRD | ≤ 0.25
109 | TSNR | ≤ 0.25
110 | MTQI | ≤ 0.25
111 | ALCP | ≤ 0.25
112 | WICW | ≤ 0.25
113 | VYVP | ≤ 0.25
114 | RHFI | ≤ 0.25
115 | YGFM | ≤ 0.25
116 | PKPS | ≤ 0.25
117 | EAYM | ≤ 0.25
118 | PNRA | ≤ 0.25
119 | PLVE | ≤ 0.25
120 | HHNY | ≤ 0.25
121 | DNDG | ≤ 0.25
122 | VDEI | ≤ 0.25
123 | VGYF | ≤ 0.25
124 | SCKG | ≤ 0.25
125 | MESC | 10.2

Row | Variant | enrichment ratio
126 | NLRM | ≤ 0.25
127 | MWTH | ≤ 0.25
128 | IKNL | ≤ 0.25
129 | IESK | ≤ 0.25
130 | TQNW | ≤ 0.25
131 | MLFL | 0.265
132 | EHLM | ≤ 0.25
133 | WFIS | ≤ 0.25
134 | FGCL | 9.53
135 | IVRL | ≤ 0.25
136 | FSGK | ≤ 0.25
137 | SFMM | 0.454
138 | EAKK | ≤ 0.25
139 | VNHM | ≤ 0.25
140 | KSAH | ≤ 0.25
141 | EIWM | ≤ 0.25
142 | RFLT | ≤ 0.25
143 | VPAL | ≤ 0.25
144 | MYFQ | ≤ 0.25
145 | SGYF | 1.57
146 | WRST | ≤ 0.25
147 | ECSN | ≤ 0.25
148 | DWAM | ≤ 0.25
149 | RMGW | ≤ 0.25
150 | QMMS | ≤ 0.25

Row | Variant | enrichment ratio
151 | HGRW | ≤ 0.25
152 | APWR | ≤ 0.25
153 | DNYS | ≤ 0.25
154 | KMAF | ≤ 0.25
155 | FSRE | ≤ 0.25
156 | GRVC | ≤ 0.25
157 | NMRN | ≤ 0.25
158 | YMPY | ≤ 0.25
159 | FWQW | ≤ 0.25
160 | QMYE | ≤ 0.25
161 | YHLQ | ≤ 0.25
162 | VMDK | ≤ 0.25
163 | LTRA | ≤ 0.25
164 | KMSG | ≤ 0.25
165 | IKKY | ≤ 0.25
166 | TMCK | 3.91
167 | QFGN | ≤ 0.25
168 | CCAS | ≤ 0.25
169 | TGDH | ≤ 0.25
170 | PFKL | ≤ 0.25
171 | EGHD | ≤ 0.25
172 | LRVL | ≤ 0.25
173 | HKEL | ≤ 0.25
174 | PQGI | ≤ 0.25
175 | VWNH | ≤ 0.25

Row | Variant | enrichment ratio
176 | WWER | ≤ 0.25
177 | LLLP | ≤ 0.25
178 | SIMW | 2.09
179 | MHDK | ≤ 0.25
180 | TGPW | ≤ 0.25
181 | FYFC | ≤ 0.25
182 | DWML | ≤ 0.25
183 | HMIW | ≤ 0.25
184 | LWPP | ≤ 0.25
185 | ERHY | ≤ 0.25
186 | AYSI | ≤ 0.25
187 | YNIP | ≤ 0.25
188 | ITTL | 0.464
189 | DHVG | ≤ 0.25
190 | RINV | ≤ 0.25
191 | TQST | 5.28
192 | IRSS | ≤ 0.25
193 | ELMR | ≤ 0.25
194 | YGGH | ≤ 0.25
195 | EQAL | ≤ 0.25
